Results reported in article PMC4336329 (PLoS ONE, 2015).
Out of some 310,000 compounds screened, about 2,200 (0.71%) showed an effect of 50% or more. Effects have a minus sign here. This is one part of the list.

Target: human ether-à-go-go-related gene (hERG) potassium channel (human, UniProt Q12809)
Test: primary screen, population patch clamp on CHO cells stably expressing hERG

human ether-à-go-go-related gene (hERG) potassium channel, sequence (Q12809 whole entry, looked up): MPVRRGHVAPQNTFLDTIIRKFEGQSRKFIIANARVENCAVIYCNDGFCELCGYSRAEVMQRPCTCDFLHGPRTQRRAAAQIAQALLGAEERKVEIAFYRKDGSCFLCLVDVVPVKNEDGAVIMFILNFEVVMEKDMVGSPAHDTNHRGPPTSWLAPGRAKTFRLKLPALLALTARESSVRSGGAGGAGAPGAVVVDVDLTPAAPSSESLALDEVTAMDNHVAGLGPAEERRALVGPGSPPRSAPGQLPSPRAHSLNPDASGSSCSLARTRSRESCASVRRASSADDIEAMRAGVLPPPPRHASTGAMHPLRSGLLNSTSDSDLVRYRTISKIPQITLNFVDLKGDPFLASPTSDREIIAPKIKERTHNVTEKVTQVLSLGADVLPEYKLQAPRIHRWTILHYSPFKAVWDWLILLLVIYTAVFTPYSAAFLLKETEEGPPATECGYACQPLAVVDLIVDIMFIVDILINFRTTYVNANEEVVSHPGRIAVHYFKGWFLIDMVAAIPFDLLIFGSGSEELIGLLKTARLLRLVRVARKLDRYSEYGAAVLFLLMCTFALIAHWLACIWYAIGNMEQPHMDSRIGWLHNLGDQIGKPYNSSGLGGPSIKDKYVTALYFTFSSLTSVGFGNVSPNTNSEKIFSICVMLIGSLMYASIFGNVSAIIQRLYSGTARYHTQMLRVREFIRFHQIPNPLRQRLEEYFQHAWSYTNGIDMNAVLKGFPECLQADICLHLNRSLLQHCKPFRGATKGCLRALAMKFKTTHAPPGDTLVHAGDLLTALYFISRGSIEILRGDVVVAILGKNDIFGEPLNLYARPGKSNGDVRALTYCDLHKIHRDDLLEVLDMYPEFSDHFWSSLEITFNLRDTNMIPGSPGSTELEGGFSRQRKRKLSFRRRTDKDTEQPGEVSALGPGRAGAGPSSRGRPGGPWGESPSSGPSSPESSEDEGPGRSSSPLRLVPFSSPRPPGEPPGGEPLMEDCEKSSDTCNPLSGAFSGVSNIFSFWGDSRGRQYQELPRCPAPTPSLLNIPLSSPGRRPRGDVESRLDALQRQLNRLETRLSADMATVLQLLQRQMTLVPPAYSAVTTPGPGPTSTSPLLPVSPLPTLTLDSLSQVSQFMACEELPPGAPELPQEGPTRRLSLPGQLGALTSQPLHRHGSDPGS

Structure (SMILES)	hERG current change (%, negative = inhibition) at 1uM
CCS(=O)(=O)N1Cc2ccccc2CC1C(=O)Nc1ccc(F)cc1 (stereo not shown)	3.71%
COc1ccc(N2Cc3ccccc3C2)cc1Cl	-11.6%
CSc1cccc(NC(=O)Cn2cccc2)c1	5.55%
O=c1cnnc(Nc2ccccc2F)[nH]1	13%
O=C(CSc1nnc(-c2ccncc2)s1)Nc1ccccc1	10.6%
O=C(Nc1cccc(F)c1)c1cc(S(=O)(=O)N2CCC(C(=O)O)CC2)ccc1F	7.97%
CCCCCC(=O)Nc1cccc(C2=NOC3(C2)C[C@@H](C(N)=O)N(C(=O)c2ccc(Cl)cc2)C3)c1 (stereo partly shown)	7.05%
Cc1ccc(C(=O)N/C(=C\c2cccc([N+](=O)[O-])c2)C(=O)OCN2C(=O)c3ccccc3C2=O)cc1	17%
Cc1cccc(Nc2sc(C(=O)c3cc4cc(Cl)ccc4o3)c(N)c2C#N)c1	2.48%
COc1ccc2c(c1)CC/C(=C\c1ccc(OC)c(Cn3nc(C)cc3C)c1)C2=O	7.34%
CCOC(=O)c1ccc(-n2ncc(C(=O)OCC)c2N)cc1	4.94%
CCOC(=O)/C(C#N)=C/Nc1ccccc1NS(=O)(=O)c1ccc(C)c(C)c1	10.5%
O=C(Nn1cnnc1)c1ccc(Cl)c(Cl)c1	19.7%
O=C(Sc1ccc(Cl)cc1)c1ccccn1	16.3%
O=C(CSc1nnc(NC(=O)c2ccco2)s1)Nc1ccccc1Cl	18.4%
NC(=O)CC(NC(=O)Cc1cccc2ccccc12)c1ccc(NCc2cc(F)ccc2F)c([N+](=O)[O-])c1 (stereo not shown)	11.5%
Cc1cccc(OCCNC(=O)c2ccc(Oc3ccc(C(F)(F)F)cc3[N+](=O)[O-])cc2)c1	16.3%
O=C(CCc1nc2ccccc2[nH]1)N1CCc2ccccc2C1	-3.88%
C=C(CCC(=O)c1ccccc1)C(=O)c1ccccc1	17.5%
O=C1c2ccccc2C(=O)C1c1ccccc1	6.99%
CC(=O)NC(c1cccs1)c1cc(Cl)c2ccccc2c1O (stereo not shown)	3.34%
CCOC(=O)c1c(C)[nH]c(C(=O)C(C)Sc2ccc(Cl)cc2)c1C (stereo not shown)	9.6%

Structure (SMILES)	hERG current change (%, negative = inhibition) at 1uM
COc1ccc(NC(=O)CSc2nnc(NC(=O)c3ccc(S(=O)(=O)N4CCOCC4)cc3)s2)cc1	20.2%
CCCc1ccc(O)c(N=Cc2cc(Br)cc(OCC)c2O)c1	-9.54%
Cn1c(=O)c2c(nc(SCC(=O)NCc3ccc4c(c3)OCO4)n2Cc2ccccc2)n(C)c1=O	-3.75%
Cc1nnc(SCC(=O)N2CCN(c3cccc(Cl)c3)CC2)n1C1CC1	1.99%
COc1cccc(CN(C)C(=O)c2cc(-c3ccc(F)cc3)nc3ccccc23)c1	9.71%
COc1ccc(CNC(=O)CCn2c(C)csc2=O)cc1	5.75%
CN1CCN(NC(=O)c2cc(Br)ccc2Cl)CC1	11.9%
O=C1CCN(C(=S)NCCc2ccccc2)CC1	6.51%
COc1cccc(OC)c1C(=O)NC(=O)NNc1cc(C(F)(F)F)cc(C)n1	8.5%
CC1Cc2ccccc2N1C(=O)CSc1nnc(Cn2nnc3ccccc32)n1C (stereo not shown)	-5.43%
O=C1OC2CCC1(c1ccccc1)C2 (stereo not shown)	13.2%
COCCOC(=O)c1c(N)n(Cc2ccco2)c2nc3ccccc3nc12	-16.5%
COc1cc(COC(=O)c2cnc(C)cn2)c(OC)cc1Br	24.3%
N#C/C(=C\Nc1ccc(Cl)cn1)S(=O)(=O)c1ccccn1	14.6%
CC1(C)OC(=O)C(=NNc2ccc(Br)cc2)C(=O)O1	4.08%
COc1ccc(-c2cn(CCO)c(-c3ccc(Cl)nc3)n2)cc1	4.56%
O=C(O)C1CCN(C(=O)Cc2ccccc2)CC1	15.5%
COc1cc2c(cc1NC(=O)c1ccc(C)c([N+](=O)[O-])c1)oc1ccccc12	8.7%
CC1CCCC(NC(=O)COC(=O)c2cn(C)c3ccccc23)C1C (stereo not shown)	12.6%
O=c1cc(-c2ccccc2Cl)c2c([nH]1)CCC2	19.2%
CCOc1cc(C)nc(Oc2ccc(=O)[nH]n2)n1	6.64%
CCOc1cc(/C=C(\C(=O)O)c2ccc(S(=O)(=O)N3CCCC3)s2)ccc1OC	11.3%

Structure (SMILES)	hERG current change (%, negative = inhibition) at 1uM
COC(=O)c1cc2sccc2n1CC(=O)N1CCCc2ccccc21	-4.85%
CCCCOc1ccc(CSCCNC(=S)Nc2ccccc2)cc1	11.9%
COc1cc(OC)cc(C(=O)N2CCN(Cc3cccc(F)c3)CC2)c1.O=C(O)C(=O)O	-4.24%
Cc1cccc2sc(NNC(=O)c3cc(-c4cccs4)nc4ccccc34)nc12	11%
Cc1cc(Br)ccc1NC(=O)CN(C)C(=O)CCSc1ccc(F)cc1	10.9%
COc1ccc(C2=NCCc3cc(OC)c(OC)cc32)cc1OC	7.59%
O=C(Nc1ccc(CN2CCCCC2)cc1)c1sc2ccccc2c1Cl	11.6%
N=c1c(S(=O)(=O)c2ccccc2)cc2c(=O)n3ccccc3nc2n1Cc1ccco1	18.6%
COc1ccc(CNC(=O)CCC(=O)N2C[C@H]3C[C@H](C2)c2cccc(=O)n2C3)cc1OC	9.12%
Cc1nn(C)c(=O)n1-c1ccc(Oc2ccccc2)cc1	13.7%
CC1CC(=O)N(CC(=O)NCc2ccccc2)c2ccccc2S1(=O)=O (stereo not shown)	10.8%
CC(C)(C)c1cc(C(=O)N/N=C/c2ccc(F)cc2)n(-c2ccccc2)n1	-6.32%
COc1ccc(OCC(=O)N2CCN(C(=O)c3ccco3)CC2)cc1	-14.5%
Cc1cc(=O)[nH]c(COc2ccccc2)n1	13%
Cc1cc(C)cc(-c2nnc(SCC(=O)c3ccc4c(c3)OCCO4)o2)c1	16%
C=CCOc1ccc(C2NC(=S)NC3=C2CCc2ccccc23)cc1 (stereo not shown)	4.53%
O=S(=O)(Nc1cccc(-c2cn3cccnc3n2)c1)c1ccc(Cl)cc1	6.74%
Cc1[nH]n(-c2cccc3ccccc23)c(=O)c1C=Nc1ccc2[nH]c(=O)[nH]c2c1	9.98%
O=S(=O)(c1ccc(Cl)cc1)N1CCN2CCCC2C1 (stereo not shown)	10.5%
O=C(CCN1C(=O)/C(=C/c2ccc(F)cc2)SC1=S)NNC(=O)c1cccnc1	1.06%
Cc1nn(C)c(N)c1-c1ccccc1	3.31%
Cc1ccc2c(c1)COc1c3ccc(C(=O)N4CCCCC4)cc3nn1-2	5.17%

Structure (SMILES)	hERG current change (%, negative = inhibition) at 1uM
CCOC(=O)c1cc(C(=O)Nc2ccc(S(=O)(=O)Nc3ccc(OC)cc3)cc2)nn1C	17.8%
Cc1ccc(S(=O)(=O)NCc2cccnc2)c(C)c1	13%
CCSc1nc2ccccc2n1C(=O)/C=C/c1ccc(OC)c(OC)c1	2.17%
Cc1cc2c(cc1S(=O)(=O)N1CCN(c3cccc(C(F)(F)F)c3)CC1)OCC(=O)N2	12.3%
O=C1c2ccc3c4c(ccc(c24)C(=O)N1c1cccc(O)c1)CC3	3.82%
O=C1/C(=C\c2ccc([N+](=O)[O-])cc2)CCc2ccccc21	9.66%
O=C(CC1C(=O)NCCN1Cc1ccccn1)NCCc1ccccc1F (stereo not shown)	12.6%
O=C(C[n+]1ccc2ccccc2c1)c1ccccc1.[Br-]	5.95%
COc1ccc(-c2nc(CS(=O)(=O)CC(=O)NCc3cccc(F)c3)c(C)o2)cc1	9.79%
CCc1cccc(Oc2nn[nH]n2)c1	1.13%
COc1cc(C(C(=O)NC2CCCC2)N(C(=O)Cc2cccs2)C2CC2)cc(OC)c1OC (stereo not shown)	9.2%
O=C(Nc1ccc(S(=O)(=O)C(F)F)cc1)c1ccc2c(=O)n3c(nc2c1)CCC3	19.4%
CN(Cc1c(C(=O)N/N=C/c2ccc(F)cc2)nnn1-c1nonc1N)C1CCCCC1	3.86%
CCN(C1CCCCC1)S(=O)(=O)c1cn(C)c(=O)n(C)c1=O	7.04%
NCCCC[C@H]1CN=C(N)N1CCC12CC3CC(CC(C3)C1)C2	18.2%
CCn1c(SCC(=O)NC2CCCC2)nnc1C(C)C	11.2%
Cc1cc(NC(=O)CCC(=O)N(Cc2cccs2)C(C(=O)NC2CCCC2)c2ccccc2)no1 (stereo not shown)	2.23%
Cc1cccc(C)c1NC(=O)C1(N2C(=O)CC2c2ccccc2)CCCCC1 (stereo not shown)	9.45%
CCOc1nc(NCCN2CCOCC2)nc(Nc2ccc(C)cc2)n1	-34.1%
Cc1ccsc1CN(C)C(=O)CN1C(=O)NC2(CCCCC2C)C1=O (stereo not shown)	1.94%
COc1ccc(NC(=O)c2cc(CN3C(=O)c4ccccc4C3=O)ccc2OC)cn1	5.63%
CN/N=C/c1ccc(C#N)cc1	-1.27%
